Data on seven compounds can be found in the supplement of paper PMC9046079.

The subject of test [1] is murine small intestinal organoids (ENR+CD Paneth differentiation). The test is described as follows: cellular ATP (CellTiter-Glo 3D) relative to plate median (log10 fold change); higher = more viable cells. The note with it: 6 d. In general terms: Cellular ATP, detected with luciferase, serves as a proxy for viable cell number.
The test system is the same in test [2]. The test is described as follows: carbachol-stimulated secreted lysozyme activity relative to plate median (log10 fold change); higher = more Paneth cell lysozyme secretion. The note with it: 6 d, carbachol 10 µM.
The test system is the same in test [3]. The test is described as follows: basal (non-stimulated) secreted lysozyme activity relative to plate median (log10 fold change); higher = more Paneth cell lysozyme secretion. The note with it: 6 d.

Each structure is given as a SMILES string. ± gives the standard deviation of the averaged measurements. Some of the results follow.
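Wherever basal (non-stimulated) secreted lysozyme activity relative to plate median is given: ISC-enriched organoid precursors grown as 2.5D pseudo-monolayer on Matrigel, compound given on day 0 and day 3, plate values LOESS-normalized before median fold change, three murine donors.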
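Wherever cellular ATP (CellTiter-Glo 3D) relative to plate median is given: 2.5D pseudo-monolayer culture of ISC-enriched organoids partly embedded atop Matrigel, compound added on day 0 and again on day 3, per-plate LOESS correction before median fold change.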

Consider `C[C@@H]1O[C@@H](O[C@H]2C[C@@H](O)[C@]3(CO)[C@H]4[C@H](O)C[C@]5(C)[C@@H](C6=CC(=O)OC6)CC[C@]5(O)[C@@H]4CC[C@]3(O)C2)[C@H](O)[C@H](O)[C@H]1O` [Ouabain], for which the “cellular ATP (log10)” value in test [1] (0.08 µM) is 0.00966 ± 0.18; in test [1] (0.4 µM), 0.122 ± 0.087; in test [1] (2 µM), 0.0795 ± 0.21; in test [1] (10 µM), -0.288 ± 0.6. The “carbachol-stimulated secreted lysozyme activity (log10)” value in test [2] (0.08 µM) stood at 0.0528 ± 0.035; in test [2] (0.4 µM), 0.0518 ± 0.0088; in test [2] (2 µM), 0.0248 ± 0.037; in test [2] (10 µM), 0.122 ± 0.013. In addition, the “basal (log10)” value in test [3] (0.08 µM) is -0.00291 ± 0.046; in test [3] (0.4 µM), 0.0361 ± 0.056; in test [3] (2 µM) it was 0.0106 ± 0.02; in test [3] (10 µM), 0.165 ± 0.32.
Regarding `CCC(COC(=O)c1cc(OC)c(OC)c(OC)c1)(c1ccccc1)N(C)C` (centres undefined) [Trimebutine], the “cellular ATP (log10)” value in test [1] (0.08 µM) was -0.65 ± 1.1; in test [1] (0.4 µM), -0.209 ± 0.28; in test [1] (2 µM), -0.63 ± 0.65; in test [1] (10 µM) it was -0.407 ± 0.44. The “carbachol-stimulated secreted lysozyme activity (log10)” value was -0.212 ± 0.35 in test [2] (0.08 µM), 0.0571 ± 0.059 in test [2] (0.4 µM), -0.149 ± 0.27 in test [2] (2 µM) and -0.167 ± 0.33 in test [2] (10 µM). The “basal (log10)” value is -0.106 ± 0.14 in test [3] (0.08 µM), 0.00169 ± 0.042 in test [3] (0.4 µM), -0.0897 ± 0.2 in test [3] (2 µM) and -0.125 ± 0.15 in test [3] (10 µM).
Regarding `CCOC(=O)c1cncn1[C@H](C)c1ccccc1` [Etomidate], the “cellular ATP (log10)” value in test [1] (0.08 µM) was determined as 0.0841 ± 0.039; in test [1] (0.4 µM), 0.00574 ± 0.32; in test [1] (2 µM), 0.163 ± 0.19; in test [1] (10 µM), 0.0392 ± 0.23. For the same compound, the “carbachol-stimulated secreted lysozyme activity (log10)” value came to 0.12 ± 0.18 in test [2] (0.08 µM), 0.105 ± 0.17 in test [2] (0.4 µM), 0.0576 ± 0.089 in test [2] (2 µM) and 0.00861 ± 0.3 in test [2] (10 µM). Moreover, the “basal (log10)” value in test [3] (0.08 µM) is -0.00752 ± 0.025; in test [3] (0.4 µM), 0.0366 ± 0.13; in test [3] (2 µM) it was 0.015 ± 0.016; in test [3] (10 µM) it was -0.00116 ± 0.15.
Consider `Cc1sc2c(c1C)C(c1ccc(Cl)cc1)=N[C@@H](CC(=O)Nc1ccc(O)cc1)c1nnc(C)n1-2`, for which the “cellular ATP (log10)” value in test [1] (0.08 µM) was -0.0384 ± 0.17; in test [1] (0.4 µM) it was -0.398 ± 0.44; in test [1] (2 µM), -0.686 ± 0.092; in test [1] (10 µM), -0.908 ± 0.27. Also, the “carbachol-stimulated secreted lysozyme activity (log10)” value in test [2] (0.08 µM) is -0.366 ± 0.075; in test [2] (0.4 µM) it was -0.465 ± 0.055; in test [2] (2 µM) it was -0.457 ± 0.11; in test [2] (10 µM), -0.455 ± 0.086. Also, the “basal (log10)” value was -0.198 ± 0.12 in test [3] (0.08 µM), -0.266 ± 0.15 in test [3] (0.4 µM), -0.239 ± 0.14 in test [3] (2 µM) and -0.256 ± 0.097 in test [3] (10 µM).
Regarding `CCOc1ccccc1-n1c(C(C)N2CCN(C(=O)COc3ccc(Cl)cc3)CC2)nc2ccccc2c1=O` (centres undefined) [Erastin], the “cellular ATP (log10)” value in test [1] (0.08 µM) stood at 0.225 ± 0.27; in test [1] (0.4 µM) it was 0.285 ± 0.21; in test [1] (2 µM) it was 0.38 ± 0.15; in test [1] (10 µM) it was 0.298 ± 0.45. Also, the “carbachol-stimulated secreted lysozyme activity (log10)” value in test [2] (0.08 µM) was 0.14 ± 0.1; in test [2] (0.4 µM), 0.16 ± 0.15; in test [2] (2 µM), 0.105 ± 0.14; in test [2] (10 µM), -0.0128 ± 0.13. Also, the “basal (log10)” value in test [3] (0.08 µM) is 0.157 ± 0.026; in test [3] (0.4 µM), 0.158 ± 0.031; in test [3] (2 µM), 0.157 ± 0.12; in test [3] (10 µM) it was -0.0152 ± 0.13.
Consider `O=C(O[C@H]1C[C@H]2CC[C@@H](C1)[N+]21CCCC1)C(O)(c1ccccc1)c1ccccc1` [Trospium chloride], for which the “cellular ATP (log10)” value in test [1] (0.08 µM) is 0.139 ± 0.14; in test [1] (0.4 µM) it was 0.00615 ± 0.21; in test [1] (2 µM), 0.23 ± 0.09; in test [1] (10 µM) it was 0.135 ± 0.11. Further, the “carbachol-stimulated secreted lysozyme activity (log10)” value in test [2] (0.08 µM) was 0.0945 ± 0.017; in test [2] (0.4 µM), 0.175 ± 0.13; in test [2] (2 µM), -0.00598 ± 0.092; in test [2] (10 µM), 0.0933 ± 0.012. The “basal (log10)” value in test [3] (0.08 µM) was 0.127 ± 0.051; in test [3] (0.4 µM), 0.12 ± 0.046; in test [3] (2 µM) it was -0.00119 ± 0.0072; in test [3] (10 µM), 0.0855 ± 0.058.
Consider `CCc1c(C(=O)C(N)=O)c2c(OCC(=O)O)cccc2n1Cc1ccccc1`, for which the “cellular ATP (log10)” value worked out at 0.405 ± 0.12 in test [1] (0.08 µM), 0.18 ± 0.26 in test [1] (0.4 µM), 0.166 ± 0.2 in test [1] (2 µM) and 0.127 ± 0.15 in test [1] (10 µM). The “carbachol-stimulated secreted lysozyme activity (log10)” value in test [2] (0.08 µM) is 0.0181 ± 0.23; in test [2] (0.4 µM) it was 0.11 ± 0.16; in test [2] (2 µM), 0.1 ± 0.022; in test [2] (10 µM), 0.106 ± 0.26. Besides, the “basal (log10)” value in test [3] (0.08 µM) came out at 0.073 ± 0.14; in test [3] (0.4 µM), 0.158 ± 0.23; in test [3] (2 µM), 0.157 ± 0.089; in test [3] (10 µM) it was 0.0938 ± 0.16.
